# Source: the supplement of paper PMC3334620
# Whole data set: some 33,000 sequences, median “E-score (-0.5 to 0.5)” near -0.056, cut for the highest 2% near 0.38. Some of the results follow.
# Molecular target: Stb4 (UniProt P50104)
# Experiment: PBM E-score (8-mer binding enrichment) (E-score (-0.5 to 0.5)); higher = stronger / more preferred TF binding; most listed sequences are background and not binding sites
# Details: protein concentration: 200 nM; construct: GST-DNA-binding domain
# Summary of the method: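 Using PURExpress in vitro transcription/translation, GST-tagged yeast transcription factors were made in full-length or DNA-binding-domain form. These were applied at about 100-200 nM to double-stranded universal all-10-mer Agilent arrays, and bound protein was detected with fluorescent anti-GST. Scans were normalised with masliner before the Universal PBM Analysis Suite assigned E-scores to ungapped eight-base words pooled with their reverse complements.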
row,Sequence,PBM E-score
1,TGCATCAA,-0.148
2,GGCGCATA,0.0322
3,ATATAAAG,-0.0779
4,CATGAGAC,-0.0767
5,CTCTGAAG,-0.139
6,CAAGACCG,0.0614
7,ACTGCCTC,-0.0245
8,TGGCCTAA,-0.234
9,AACCGTCT,0.00908
10,ATCATCCA,-0.121
11,CTCAAGCC,0.0055
12,CGGTGGAG,0.121
13,GAGAGAGC,-0.196
14,CGGCCGAA,0.314
15,AGCCTTAT,-0.103
16,GGGATCAA,0.127
17,GACGGACA,0.12
18,ATTATTTC,0.224
19,AGGCCGTG,-0.0735
20,AAGTAATT,0.108
21,CACAACGC,-0.00862
22,CCTCCCAG,-0.265
23,GAATGCGA,0.0718
24,CTATCCAG,0.0257
25,AGTAGCTA,0.0856

row,Sequence,PBM E-score
1,GGTAGCAC,0.0284
2,GTTTCGGA,0.43
3,AGCATACA,-0.143
4,ATTTCAAA,-0.109
5,GGTGGGAA,0.146
6,CCTCCGCC,0.11
7,AATAGCTG,-0.0244
8,CACGCGCA,-0.126
9,CGAGATGC,0.0535
10,ATCCTTGA,-0.11
11,AATTTCCG,0.425
12,ATATCAGG,-0.241
13,ACCCTCAA,-0.15
14,GGGACCCA,0.131
15,ATTGTCTC,0.0102
16,CGCCATGA,-0.0878
17,TACTGTAA,-0.101
18,TGAAACCA,-0.0604
19,CAACTCGA,-0.205
20,AGTAGGCG,-0.169
21,CTATAGTA,0.0285
22,ACGACTGA,-0.0836
23,AGGAGAAT,0.0566
24,AGTTGATC,-0.103
25,ACTGCCAA,-0.0818

row,Sequence,PBM E-score
1,AGAATATC,0.104
2,ACGAACGA,-0.0896
3,AAGGTCTC,-0.173
4,TTCGCAAA,-0.0518
5,AACCCCTG,-0.123
6,ATCTAAAC,0.118
7,GCAACGAA,-0.162
8,AGACGTGA,-0.153
9,AACTGAGC,-0.0204
10,CCGATAGG,0.291
11,ATCAATGG,-0.145
12,CGTCATGC,-0.169
13,AGACATGG,-0.121
14,GTTTGTGA,-0.0209
15,CATGCGCC,0.066
16,CCCAGCGC,-0.0584
17,AATTGCAA,-0.0324
18,AATTGATG,0.0574
19,ATGACGTC,-0.0614
20,AACAGGTT,-0.0193
21,CAATCAGC,-0.164
22,AGTTCATG,-0.00844
23,CCCGGGCA,0.266
24,CTCGAATC,-0.207
25,AGACCGGG,0.155

row,Sequence,PBM E-score
1,ACGCAAGG,-0.184
2,AGCGCTAG,-0.215
3,CTACCTCA,-0.0102
4,CATGTCCG,0.11
5,CCGGACGA,0.191
6,CCTTCAGA,-0.155
7,CACACGCG,-0.0638
8,ACCGACTG,0.199
9,AACAAAAC,0.0726
10,ATAACAGA,-0.0274
11,CAGTAGGA,-0.0533
12,AGGGTTGA,0.0221
13,AAATCCTT,-0.122
14,CACCGGTC,-0.0811
15,TACCGGCA,0.279
16,ATTACGAC,-0.0667
17,GAGTCCCA,0.116
18,AGTTAGGG,-0.0805
19,CCCGTTCC,0.236
20,AAACTTAA,0.0017
21,GAGATTCC,0.267
22,AATCTTCC,0.249
23,ATGTTAGG,-0.143
24,AGAAGTCT,-0.185
25,CCATTAGA,-0.124

row,Sequence,PBM E-score
1,ATCTAATG,0.0219
2,CTACATTA,-0.128
3,CACAAACA,-0.0138
4,AGAACACC,-0.00556
5,ACACAAGA,-0.0626
6,AAAAAGTG,-0.127
7,ACAAGCAC,0.0237
8,GTGTACGA,0.0346
9,GCCCAGAC,-0.133
10,ATAGTGAT,-0.0643
11,CCTGAAAA,-0.029
12,CCGGTCGC,0.0983
13,AATAAGTA,-0.124
14,AGATTTGA,-0.0414
15,GCGCCCTA,-0.0848
16,GGGGTTCA,-0.16
17,AGTCCAAC,-0.196
18,ATCTTTCA,0.11
19,AGTCTTGC,-0.171
20,AATAGGAG,-0.317
21,GACGCAGC,-0.332
22,TAGAAAGA,-0.169
23,AATTGAAG,-0.06
24,AGAAGCGC,-0.0636
25,ACTAGGAG,-0.131

row,Sequence,PBM E-score
1,ACTCTTAC,-0.129
2,CGGTCCGA,0.449
3,AAGTGTAG,-0.173
4,AGAACAAC,-0.157
5,CGACACTA,0.0541
6,CATTTATA,-0.0509
7,GCCGTGGA,0.081
8,AAGCCCTT,-0.224
9,AGGGGACG,-0.135
10,CATACCCA,-0.102
11,CTGGTTCA,-0.0813
12,AAGGCAGA,-0.201
13,CTCTGGTC,-0.088
14,GTCTCCAC,-0.145
15,ACGTACTC,0.0468
16,CCCTATAA,-0.0911
17,CGATCCTC,-0.0188
18,TCCATAAA,-0.181
19,AGATAATC,0.0225
20,GATCCAGA,-0.0775
21,CAGCGATA,0.0297
22,AATGGTTA,-0.0925
23,CCACGCCG,0.0108
24,ATCGAGAC,0.00507
25,AGCCATAT,-0.113

row,Sequence,PBM E-score
1,ATCGTGCA,-0.194
2,CAGGTTCA,-0.296
3,CTGGACTA,-0.262
4,CGTGTGAA,-0.061
5,GCGATCTA,-0.0238
6,CCAAGGAG,-0.0516
7,ACGGACAC,0.0209
8,CTCCTCGA,-0.284
9,CTTCGCGC,0.0416
10,CAACACGG,0.135
11,CCAACTAC,-0.00781
12,TATTAATA,0.15
13,CCATCGAG,-0.0968
14,CCGCTCAG,-0.0134
15,AAGATTCA,0.0118
16,AAGACTAT,-0.184
17,CAGCCTAA,-0.325
18,AAGGGACT,-0.194
19,GACACAGA,-0.0692
20,ACTCTCTC,-0.0502
21,ATGCGTTG,-0.0732
22,ACTGTTTG,-0.343
